Data published in publication PMC10150487, “m^6A readers ECT2/ECT3/ECT4 enhance mRNA stability through direct recruitment of the poly(A) binding proteins in Arabidopsis” (Genome Biology, 2023).
Results are given in words; binding and its absence hold for the method and conditions named. For some of these results: In cells and extracts the contact can be indirect. Some binding calls cover weakened binding; strength is not graded here. Sequences can lack the tags named with a protein. Values belong to the binder of their own block, whether it stands above or below them.

Key:
[1] = biological target: T1, ECT2-BD (Arabidopsis thaliana) (UniProt Q9LJE5); assay: two-hybrid; GAL4 yeast two-hybrid, pGBKT7 (BD) and pGADT7 (AD) fusions co-transformed into AH109 cells; growth on triple or quadruple dropout medium (-Leu/-Trp/-Ade/-His)
T1 sequence: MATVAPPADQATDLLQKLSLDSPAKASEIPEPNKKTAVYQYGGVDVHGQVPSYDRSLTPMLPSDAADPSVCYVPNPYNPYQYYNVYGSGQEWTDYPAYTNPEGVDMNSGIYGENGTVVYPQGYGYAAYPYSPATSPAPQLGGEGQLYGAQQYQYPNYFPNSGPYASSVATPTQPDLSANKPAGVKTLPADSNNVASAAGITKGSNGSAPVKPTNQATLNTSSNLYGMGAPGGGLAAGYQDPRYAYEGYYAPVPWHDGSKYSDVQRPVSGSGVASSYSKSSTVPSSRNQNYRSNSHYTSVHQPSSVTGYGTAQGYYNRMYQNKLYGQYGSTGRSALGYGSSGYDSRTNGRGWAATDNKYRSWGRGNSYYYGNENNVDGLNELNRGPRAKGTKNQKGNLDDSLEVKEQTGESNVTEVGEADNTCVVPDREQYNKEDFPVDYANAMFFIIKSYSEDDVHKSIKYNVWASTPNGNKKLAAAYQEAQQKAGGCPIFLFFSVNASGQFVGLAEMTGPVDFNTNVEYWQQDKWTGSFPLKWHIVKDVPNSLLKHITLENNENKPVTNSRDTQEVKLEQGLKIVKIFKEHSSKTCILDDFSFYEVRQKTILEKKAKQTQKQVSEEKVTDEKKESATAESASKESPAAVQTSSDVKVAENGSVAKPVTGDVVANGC

[2] = biological target: T2, ECT3-nYFP (Arabidopsis thaliana) (UniProt F4K1Z0); assay: split reporter; BiFC with split YFP; pairs co-infiltrated with Agrobacterium GV3101 into 4-week-old Nicotiana benthamiana leaves, P19 co-expressed; YFP signal read 48-60 h after infiltration by confocal microscopy
T2 sequence: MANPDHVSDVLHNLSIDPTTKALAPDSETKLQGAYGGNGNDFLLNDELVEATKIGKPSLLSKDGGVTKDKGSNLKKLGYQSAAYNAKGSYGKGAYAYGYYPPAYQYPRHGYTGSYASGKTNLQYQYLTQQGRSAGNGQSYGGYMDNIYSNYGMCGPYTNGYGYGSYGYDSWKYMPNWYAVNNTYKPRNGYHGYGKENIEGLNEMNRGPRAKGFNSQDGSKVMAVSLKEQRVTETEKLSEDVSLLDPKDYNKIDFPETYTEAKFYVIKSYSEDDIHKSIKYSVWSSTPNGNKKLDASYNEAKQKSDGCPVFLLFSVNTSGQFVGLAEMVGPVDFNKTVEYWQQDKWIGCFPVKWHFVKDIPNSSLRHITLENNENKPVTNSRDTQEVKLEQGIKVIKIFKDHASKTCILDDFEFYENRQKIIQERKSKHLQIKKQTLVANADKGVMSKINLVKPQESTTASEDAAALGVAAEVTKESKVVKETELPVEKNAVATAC

[3] = biological target: T3, ECT2-nYFP (Arabidopsis thaliana) (UniProt Q9LJE5); assay: as above
T3 sequence: T1 sequence

[4] = biological target: T4, GST-tagged full-length ECT2 (Arabidopsis thaliana, UniProt Q9LJE5 1-667); assay: pull-down; GST pull-down: purified MBP-ECT3 and SUMO-ECT4 incubated with GST-ECT2 or GST alone, GST magnetic beads, immunoblot with anti-GST, anti-MBP and anti-SUMO; both purified
T4 construct: also called GST-ECT2; Evolutionarily conserved C-terminal region 2
T4 sequence (looked up): T1 sequence

[5] = biological target: T5, ECT3-BD (Arabidopsis thaliana) (UniProt F4K1Z0); assay: two-hybrid; GAL4 yeast two-hybrid, pGBKT7 (BD) and pGADT7 (AD) fusions co-transformed into AH109 cells; growth on triple or quadruple dropout medium (-Leu/-Trp/-Ade/-His)
T5 sequence: T2 sequence

[6] = biological target: T6, ECT2, yeast two-hybrid fusion used with PAB2 and PAB4 (Arabidopsis thaliana) (UniProt Q9LJE5); assay: as above
T6 sequence: T1 sequence

[7] = biological target: T7, GST-tagged ECT2 fragment with the YTH domain alone (Arabidopsis thaliana) (UniProt Q9LJE5); assay: pull-down; GST pull-down: 100 pmol pre-cleared MBP-PAB2 or MBP-PAB4 mixed with 100 pmol GST or GST-ECT2 (full length or fragments) and glutathione magnetic agarose beads, 2 h at 4 °C, IPP buffer (150 mM NaCl, 0.1% NP-40, 10 mM Tris pH 7.4, 0.5 mM DTT); immunoblot with anti-MBP and anti-GST; both purified
T7 sequence: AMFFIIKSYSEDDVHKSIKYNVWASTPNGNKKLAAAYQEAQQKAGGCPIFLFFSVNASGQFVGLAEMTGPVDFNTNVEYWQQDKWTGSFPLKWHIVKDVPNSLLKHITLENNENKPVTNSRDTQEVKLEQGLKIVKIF

B1: ECT3-AD (protein, UniProt F4K1Z0 1-495)
chain: T2 sequence
binding [1]: binds

B4: ECT4-AD (protein, UniProt A0A1P8AS03 1-605)
chain: MSTVAPPADQAADVLKKLSLDSKSRTLEIPEPTKKTGVYQYGAMDSNGQVPSFDRSLSPMLPSDALDPSVFYVPNVYQQPYYYGYGSDYTGYTNSESVDMTSGAYGENASLVYPQGYGYAAFPYSPATSPAPQLGGDGQLYGAQQYQYPFPLTASSGPFASSVPASTQSKLSTNKAANSASAGIPKGMNGSAPVKPLNQSALYGNSALGGGLAAGYQDPRYSYDGFYTPVSWHDGSNFSDVQRSVSGSGVASSYSKANNNVPATRNQNSSSNSHYTSMYQPASMTGYAAQGYYDRVSPNKSYGQYGSTVRSGMGYGSSGYGSRTNERGWLNTDNKYRSRGRGNSYFYGNENIDGLNELNRGPRAKGTKATEEVSSEEVKKQTFDESNTEETVTCVLPDREECNRDDFPVEYKDAKFFIIKSYSEDDVHKSIKYNVWASTPNGNKKLDAAYQEAQQKSSGCPVFLFFSVNASGQFIGLAEMKGPVDFNKNIEYWQQDKWTGSFPLKWHILKDVPNSLLKHITLEYNENKPVTNSRDTQEVKLEQGLKVVKIFKEHNSKTCILDDFSFYEARQKTILEKKAKQQQSQKQVWEGKTNDEKPGTVDSTM
binding [1]: binds
binding [5]: binds

B5: PAB4, yeast two-hybrid fusion (protein, UniProt O22173 1-662)
chain: MAQVQAPSSHSPPPPAVVNDGAATASATPGIGVGGGGDGVTHGALCSLYVGDLDFNVTDSQLYDYFTEVCQVVSVRVCRDAATNTSLGYGYVNYSNTDDAEKAMQKLNYSYLNGKMIRITYSSRDSSARRSGVGNLFVKNLDKSVDNKTLHEAFSGCGTIVSCKVATDHMGQSRGYGFVQFDTEDSAKNAIEKLNGKVLNDKQIFVGPFLRKEERESAADKMKFTNVYVKNLSEATTDDELKTTFGQYGSISSAVVMRDGDGKSRCFGFVNFENPEDAARAVEALNGKKFDDKEWYVGKAQKKSERELELSRRYEQGSSDGGNKFDGLNLYVKNLDDTVTDEKLRELFAEFGTITSCKVMRDPSGTSKGSGFVAFSAASEASRVLNEMNGKMVGGKPLYVALAQRKEERRAKLQAQFSQMRPAFIPGVGPRMPIFTGGAPGLGQQIFYGQGPPPIIPHQPGFGYQPQLVPGMRPAFFGGPMMQPGQQGPRPGGRRSGDGPMRHQHQQPMPYMQPQMMPRGRGYRYPSGGRNMPDGPMPGGMVPVAYDMNVMPYSQPMSAGQLATSLANATPAQQRTLLGESLYPLVDQIESEHAAKVTGMLLEMDQTEVLHLLESPEALNAKVSEALDVLRNVNQPSSQGSEGNKSGSPSDLLASLSINDHL
binding [6]: binds

B6: MBP-tagged PAB4 (natural protein, Arabidopsis thaliana, UniProt O22173 1-662, looked up)
chain: B5 chain
notes: also called MBP-PAB4; source: Escherichia coli BL-21 Gold, purified (amylose resin)
binding [7]: no binding (tested: 100 pmol each)

B8: MBP-tagged PAB2 (natural protein, Arabidopsis thaliana, UniProt P42731 1-629, looked up)
chain: MAQVQLQGQTPNGSTAAVTSAPATSGGATATQFGNTSLYVGDLDFNVTDSQLFDAFGQMGTVVTVRVCRDLVTRRSLGYGYVNFTNPQDAARAIQELNYIPLYGKPIRVMYSHRDPSVRRSGAGNIFIKNLDESIDHKALHDTFSSFGNIVSCKVAVDSSGQSKGYGFVQYANEESAQKAIEKLNGMLLNDKQVYVGPFLRRQERDSTANKTKFTNVYVKNLAESTTDDDLKNAFGEYGKITSAVVMKDGEGKSKGFGFVNFENADDAARAVESLNGHKFDDKEWYVGRAQKKSERETELRVRYEQNLKEAADKFQSSNLYVKNLDPSISDEKLKEIFSPFGTVTSSKVMRDPNGTSKGSGFVAFATPEEATEAMSQLSGKMIESKPLYVAIAQRKEDRRVRLQAQFSQVRPVAMQPSVGPRMPVYPPGGPGIGQQMFYGQAPPAMIPPQPGYGYQQQLVPGMRPGGGPVPSFFMPMVQPQQQRPGGGRRPGGIQHSQQQNPMMQQQMHPRGRMFRYPQGRGGSGDVPPYDMGNNMPLTIGALASNLSNATPEQQRTMLGEVLYPLVEQVEAESAAKVTGMLLEMDQTEVLHLLESPEALKAKVAEAMDVLRSVAAGGATEQLASLNLS
notes: also called MBP-PAB2; source: Escherichia coli BL-21 Gold, purified (amylose resin)
binding [7]: no binding (tested: 100 pmol each)

The next lines start with the values.

binding [2]: binds
binding [3]: binds
B2: ECT4-cYFP (protein, UniProt A0A1P8AS03 1-605)
chain: B4 chain

binding [4]: binds
B3: SUMO-tagged ECT4 (protein, UniProt A0A1P8AS03 1-605)
chain: B4 chain

binding [6]: binds
B7: PAB2, yeast two-hybrid fusion (protein, UniProt P42731 1-629)
chain: B8 chain
